This note sets out measurements from PubChem BioAssay AID1508624 (National Center for Advancing Translational Sciences (NCATS), 2021).

SMILES strings stand for the structures. Hit rate of the full screen: of about 48,000 compounds, about 120 (0.25%) were called active. Another 4% or so got no clear call; they are omitted. The call rests on the fitted dose curve; in most records, active means well fitted activation curve with a large enough effect; inconclusive means small, poorly fitted or top-dose-only effect, or another doubt; inactive means no such curve, though single readings can be large or run the other way. Only a part is listed here, and it is no random draw. Where no call is shown, the source filed none.

The nature of the assay: Primary qHTS for Identification of Small Molecule Activators of Huntingtin-Antisense Promoter Activity. Further: nearly all actives have a fitted effect of over 55% in size. Conditions: HEK293 HTT-AS promoter firefly luciferase reporter, 24 h; activity change, positive = activation: at 57.5 µM (top of the series), percent change from vehicle, -100% = no light. The method in brief:
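HEK293 luciferase promoter-reporter cells (2,500/well) plated 24 h, then compounds added at up to 57.5 uM final for 24 h at 37 °C. Firefly luminescence by Dual-Glo, normalized to vehicle (0%) and zero RLU (-100%).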
Take `CCCOc1ccc(C2C(=O)N(C3CCCCCC3)CC(=O)N2Cc2ccc(OC)cc2)cc1OC` (configuration not stated): the activity change, positive = activation was -32.9%.
For `Cc1cc(C)c2oc(-c3cc(NC(=O)Cc4ccccc4)ccc3Cl)nc2c1`, the activity change, positive = activation was -6.31%.
In the case of `CCc1ccccc1OCCSc1nc(-c2cccs2)nc2cc(=O)[nH]n12` it was -12.5%.
Take `O=C(Nc1ccccc1C(F)(F)F)c1cc2ccccn2n1`: the activity change, positive = activation turned out to be 78.4%.
For `CCCS(=O)(=O)N1CCC(n2c(C(F)(F)F)nc3cccnc32)CC1` the value was -14.4%; for `CCc1ccc(-n2c(CCC(=O)O)ccc2-c2ccc(F)cc2)cc1`, 0.388%; for `Cc1ccc(-n2nnc(-c3nsc(NC(=O)c4ccc(C)c(C)c4)n3)c2C)cc1`, inactive: -17.9%.
For `COc1cccc(NC(=O)c2c(C(=O)Nc3ccccc3)sc3nc(C)cc(=O)n23)c1` the value was -12.1%; for `Cc1nn(C(C)C(=O)NC2CCC(C)CC2)c(=O)c2cc3sccc3n12` (configuration not stated), inactive: -2.97%.
In the case of `Cc1nn(-c2ccc(N3CCCC3)nn2)c(C)c1CCC(=O)NCc1ccc(OC(C)C)cc1` it was -13%; in that of `CC(=O)c1cc2c(cc1NC(=O)c1cnn(-c3ccc(C)cc3)c1-n1cccc1)OCO2`, -6.75%; in that of `O=C(Nc1cccc(C(F)(F)F)c1)c1noc2c1CCc1ccccc1-2`, 14.9%.
For `CNC(=O)c1ccc(Nc2nnc(-c3ccc(C)c(S(=O)(=O)NC(C)(C)C)c3)c3ccccc23)cc1`, the activity change, positive = activation was -12.3%.
In the case of `COc1ccccc1NC(=O)CCN1CCC(C(N)=O)CC1` it was -8.83%; in that of `O=C(Nc1cccc(-c2nc3ncccc3o2)c1)c1ccc(-c2cccc(Cl)c2Cl)o1`, -13.9%.
In the case of `CC(C)NC(=O)Cn1ncn2c(cc3cc(F)ccc32)c1=O` it was 41.2%; in that of `COc1ccc(CCNC(=O)Cc2c(C)c3cc(OC)c(OC)cc3oc2=O)cc1`, -4.27%.
In the case of `Cc1cc(C)c(C#N)c(SCC(=O)Nc2ccccc2C#N)n1` it was inactive: 2.24%.
As to `COc1cc(C(=O)Nc2ccc(OCc3cc(=O)n4ccc(C)cc4n3)cc2)cc(OC)c1OC`, the “activity change, positive = activation” value was inactive: -0.483%.
In the case of `CCn1c(=O)cc(OCC(=O)NCc2ccc(F)cc2Cl)c2ccccc21`, the activity change, positive = activation is inactive: 6.98% [at 11.5 µM, percent change from vehicle, -100% = no light].
Consider `Cc1cccc(CS(=O)(=O)CC2Nc3ccc(C(=O)NCc4ccccc4Cl)cc3NC2=O)c1` (configuration not stated), for which the activity change, positive = activation is -27.6%.
In the case of `CCNC(=O)c1cnc2sc(N3CCC(C)CC3)nn2c1=O` it was 4.83%; in that of `COc1ccc(OC)c(CCNC(=O)c2ccc3[nH]c(C)c(C)c3c2)c1`, inactive: -22.9%; in that of `COc1ccccc1CCNC(=O)CCc1c(C)c2cc3c(C)coc3cc2oc1=O`, -0.857%.
For `CC1Cc2cc(S(=O)(=O)CCC(=O)Nc3ccc(F)cc3Cl)ccc2N1C(=O)C1CC1` (configuration not stated) the value was -13.8%; for `CCCCC(=O)OCC(=O)[C@H]1[C@H](C)C[C@H]2[C@@H]3C[C@H](F)C4=CC(=O)C=C[C@]4(C)[C@@]3(F)[C@@H](O)C[C@@]21C`, inactive: -10%.
For `COc1ccc(C)cc1NC(=O)C1CCN(S(=O)(=O)Cc2ccccc2)CC1` the value was 3.25%.
Take `Cc1ccc(NS(=O)(=O)c2cn(C)c(C)n2)c(Br)c1`: the “activity change, positive = activation” value is inactive: -10.9%.
For `O=C(CSc1nc2c([nH]c3ccccc32)c(=O)n1-c1cccc(Cl)c1)N1CCOCC1` the value was inactive: -50.3%; for `Cc1oc2ccc(O)c(CN3CCN(C)CC3)c2c1C(=O)Nc1cccc(C(F)(F)F)c1`, -35.1%; for `CCCN1CCN(CCCNC(=O)Cn2c(-c3cccs3)cc3ccccc32)CC1`, inactive: -13.9%.
For `COc1ccc(-c2noc(CN3CCN(c4cccc(Cl)c4)CC3)n2)cc1` the value was inactive: -19.7%; for `Cc1c(NC(=O)c2cc(-c3ccc(O)cc3)on2)c(=O)n(-c2ccccc2)n1C`, -14.2%.
For `COc1ccc(-c2cc(C(=O)Nc3ccc4c(c3)OCO4)no2)cc1OC`, the activity change, positive = activation stood at 15.9%.
In the case of `COc1ccc(N2CCN(C(=O)CCc3c(C)nc4cc(-c5ccc(Cl)cc5)nn4c3C)CC2)cc1` it was inactive: -78.1%; in that of `O=C(NCc1ccccc1Cl)c1cnc2sc(N3CCCCC3)nn2c1=O`, -5.32%; in that of `Cc1nc2scc(C)n2c(=O)c1S(=O)(=O)Nc1ccc(N2CCOCC2)cc1`, -21.6%.
For `COc1ccc(C(CC(=O)NCc2ccccc2)N2Cc3ccccc3C2=O)cc1` (configuration not stated) the value was -4.99%; for `CCc1ccccc1NC(=O)c1cnc2sc(N3CCOCC3)nn2c1=O`, -4.41%.
In the case of `CCOc1ccccc1CNC(=O)c1cnc2sc(N3CCC(C)CC3)nn2c1=O` it was 2.83%; in that of `Cn1cnc2c(F)c(Nc3ccc(Br)cc3Cl)c(C(=O)NOCCO)cc21`, inactive: -3.64%; in that of `COc1cc(-c2nnc(SCC(=O)NCc3ccccc3Cl)o2)cc(OC)c1OC`, -4.23%.
With `COc1ccc(CNc2ncnc3onc(C)c23)cc1`, the “activity change, positive = activation” value was inactive: -38.8%.
In the case of `COc1ccc2c(C)c(CC(=O)NCc3ccc(C)cc3)c(=O)oc2c1OC` it was 6.72%.
For `CCOC(=O)c1ccc(N2CCN(c3cc(C)ccc3C)CC2)c(NC(=O)Nc2ccccc2)c1` the value was -10.8%; for `Clc1ccc(N2CCN(c3ncnc4c3nc3n4CCCC3)CC2)cc1`, inactive: -89.9%; for `O=C(NCCSCc1cccc(Cl)c1)C1CCN(S(=O)(=O)Cc2ccccc2)CC1`, -8.54%.
For `COc1ccc(C(CC(=O)Nc2cccc(C)c2C)N2Cc3ccccc3C2=O)cc1` (configuration not stated) the value was -26.7%.
Take `Cc1ccc(-c2nc3ncccc3o2)cc1NC(=O)c1cccc(OCC(C)C)c1`: the activity change, positive = activation was -12.8%.
Regarding `Cc1ccc(S(=O)(=O)Nc2nc3n(n2)C(c2ccccc2Cl)C=C(c2ccccc2)N3)cc1` (configuration not stated), the “activity change, positive = activation” value is inactive: -13.9%.
Take `COc1ccccc1N1CCN(c2nc3ccc(C)cc3n3nnnc23)CC1`: the activity change, positive = activation was found to be 5.29%.
For `O=C(c1ccco1)N1CCN(c2nc3c(Cl)cccc3s2)CC1` the value was inactive: 26.3%; for `COc1ccc(Cn2c(SCC(N)=O)nc3c(sc4ccccc43)c2=O)cc1`, inactive: 7.82%; for `COc1ccc(NC(=O)CC2C(=O)N(c3ccc(C)cc3)C(=O)N2Cc2cccnc2)cc1` (configuration not stated), 0.937%.
In the case of `CCCCN1C(=O)CN(C2CCCCC2)C(=O)C1c1ccc(OC(C)C)c(OC)c1` (configuration not stated) it was -7.92%.
For `COc1ccccc1Nc1nn2c(=O)c3ccc(C(=O)NCc4ccc(F)cc4)cc3nc2s1` the value was inactive: -52.8%; for `COc1ccc(NC(=O)c2c(C)oc3ccc(O)c(CN4CCC(C)CC4)c23)cc1`, -22.4%; for `Cc1ccc(-c2nnc(Nc3ccc(Cl)c(Cl)c3)c3ccccc23)cc1S(=O)(=O)NCCO`, -50.3%.
Turning to `Cc1ccc(CNC(=O)c2cnn(-c3cccc(C)c3)c2C2CCN(C(=O)OC(C)(C)C)CC2)cc1`, the “activity change, positive = activation” value was inactive: -42.5%.
For `Cc1ccc(S(=O)(=O)Nc2cc3c(cc2NCc2ccccc2)n(C)c(=O)n3C)cc1` the value was 24.3%; for `Cc1oc2ccc(O)c(CN3CCCC3)c2c1C(=O)Nc1ccc(C(C)C)cc1`, -16.7%.
For `COc1ccc(-c2nc3cc(NC(=O)c4ccc(C)cc4)ccc3o2)cc1Cl` the value was -36.8%.
